Experimental data taken from the supplement of paper PMC4604168 (melanoma cell lines).
The list shows a part of the results. Most values come without repeats; read them as rough.

Key:
Experiment in all cases: cell count relative to DMSO control; melanoma cells; higher = more viable cells
Conditions in all cases: library dose: low library concentration; 72 h
[1] = tested on: WM115
[2] = tested on: WM1716
[3] = tested on: WM1745
[4] = tested on: WM3526
[5] = tested on: WM3619
[6] = tested on: WM451Lu
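Note: cell number obtained by counting DAPI-stained nuclei in high-throughput microscope images with image analysis software, screen run in 1,536-well plates.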

| SMILES | cell count [1] [%] | cell count [2] [%] | cell count [3] [%] | cell count [4] [%] | cell count [5] [%] | cell count [6] [%] |
| --- | --- | --- | --- | --- | --- | --- |
| CCN(CC)CCNC(=O)c1c(C)[nH]c(/C=C2\C(=O)Nc3ccc(F)cc32)c1C [sunitinib] + c1cc(-c2cnn3cc(-c4ccc(OCCN5CCCCC5)cc4)cnc23)ccn1 [Dorsomorphin] (first compound 0.4 µM, partner dose 0.4 µM) | 98.6 | 111 | 59.1 | 94.5 | 122 | 70.2 |
| Cn1cnc2c(F)c(Nc3ccc(Br)cc3Cl)c(C(=O)NOCCO)cc21 [selumetinib] + C=CCn1c(=O)c2cnc(Nc3ccc(N4CCN(C)CC4)cc3)nc2n1-c1cccc(C(C)(C)O)n1 [MK1775] (first compound 0.015 µM, partner dose 0.02 µM) | 80.2 | 94.2 | 86.3 | 66.3 | 81.1 | 114 |
| COc1cc([C@@H]2c3cc4c(cc3[C@@H](O[C@@H]3O[C@@H]5CO[C@@H](C)O[C@H]5[C@H](O)[C@H]3O)[C@H]3COC(=O)[C@H]23)OCO4)cc(OC)c1O [etoposide] + CC(C)(C)c1cnc(CSc2cnc(NC(=O)C3CCNCC3)s2)o1 [SNS-032] (first compound 0.02 µM, partner dose 0.01 µM) | 91.6 | 83 | 88.5 | 106 | 88 | 86.6 |
| CCN(CC)CCNC(=O)c1c(C)[nH]c(/C=C2\C(=O)Nc3ccc(F)cc32)c1C [sunitinib] + CC(C)C[C@H](NC(=O)[C@H](Cc1ccccc1)NC(=O)c1cnccn1)B(O)O [Bortezomib] (first compound 0.4 µM, partner dose 0.001 µM) | 120 | 106 | 95.3 | 107 | 49 | 110 |
| C[C@]1(O)C[C@@H](c2nc(-c3ccc4ccc(-c5ccccc5)nc4c3)c3c(N)nccn32)C1 + Cn1nnc2c(C(N)=O)ncn2c1=O [temozolomide] (first compound 0.4 µM, partner dose 2 µM) | 110 | 73.5 | 87.1 | 70.4 | 111 | 95.4 |
| CCN(CC)CCNC(=O)c1c(C)[nH]c(/C=C2\C(=O)Nc3ccc(F)cc32)c1C [sunitinib] + CCN(CC)CCCCNc1ncc2cc(-c3cc(OC)cc(OC)c3)c(NC(=O)NC(C)(C)C)nc2n1 [PD173074] (first compound 0.4 µM, partner dose 0.1 µM) | 108 | 128 | 79.2 | 67.8 | 97.9 | 88 |
| Cn1cnc2c(F)c(Nc3ccc(Br)cc3Cl)c(C(=O)NOCCO)cc21 [selumetinib] + Nc1ncn([C@H]2C[C@H](O)[C@@H](CO)O2)c(=O)n1 [decitabine] (first compound 0.015 µM, partner dose 0.1 µM) | 89.4 | 94.9 | 88.1 | 77.3 | 80.9 | 90.5 |
| C[C@]1(O)C[C@@H](c2nc(-c3ccc4ccc(-c5ccccc5)nc4c3)c3c(N)nccn32)C1 + C[C@]1(c2nc3c(C(N)=O)cccc3[nH]2)CCCN1 [Veliparib] (first compound 0.4 µM, partner dose 1.4 µM) | 111 | 100 | 81 | 97.1 | 82.2 | 102 |
| COc1cc([C@@H]2c3cc4c(cc3[C@@H](O[C@@H]3O[C@@H]5CO[C@@H](C)O[C@H]5[C@H](O)[C@H]3O)[C@H]3COC(=O)[C@H]23)OCO4)cc(OC)c1O [etoposide] + NC(=O)Nc1cc(-c2cccc(F)c2)sc1C(=O)N[C@H]1CCCNC1 [AZD7762] (first compound 0.02 µM, partner dose 0.02 µM) | 89.7 | 74.1 | 85.3 | 89.1 | 39.2 | 91.3 |
| C[C@]1(O)C[C@@H](c2nc(-c3ccc4ccc(-c5ccccc5)nc4c3)c3c(N)nccn32)C1 + Oc1nc(-c2ccc(C(F)(F)F)cc2)nc2c1CSCC2 [XAV939] (first compound 0.4 µM, partner dose 2 µM) | 100 | 65.6 | 71.7 | 78 | 102 | 93.1 |
| Cn1cnc2c(F)c(Nc3ccc(Br)cc3Cl)c(C(=O)NOCCO)cc21 [selumetinib] + C=C(c1ccc(C(=O)O)cc1)c1cc2c(cc1C)C(C)(C)CCC2(C)C [Bexarotene] (first compound 0.015 µM, partner dose 2 µM) | 94.4 | 99.2 | 86 | 60.8 | 74.1 | 79.8 |
| C[C@]1(O)C[C@@H](c2nc(-c3ccc4ccc(-c5ccccc5)nc4c3)c3c(N)nccn32)C1 + CN(C)S(=O)(=O)c1ccc2c(c1)/C(=C/c1cc3c([nH]1)CCCC3)C(=O)N2 [SU6656] (first compound 0.4 µM, partner dose 0.4 µM) | 71.3 | 101 | 58.5 | 75.1 | 99.2 | 83.4 |
| CCN(CC)CCNC(=O)c1c(C)[nH]c(/C=C2\C(=O)Nc3ccc(F)cc32)c1C [sunitinib] + CCCS(=O)(=O)Nc1ccc(F)c(C(=O)c2c[nH]c3ncc(Cl)cc23)c1F [PLX4720] (first compound 0.4 µM, partner dose 0.08 µM) | 97.8 | 114 | 81.5 | 64 | 78.9 | 95.4 |
| Cn1cnc2c(F)c(Nc3ccc(Br)cc3Cl)c(C(=O)NOCCO)cc21 [selumetinib] + O=C1NC(=O)/C(=C/c2ccc(-c3ccc(F)cc3O)o2)S1 [AS252424] (first compound 0.015 µM, partner dose 1 µM) | 81.2 | 99.1 | 95.5 | 52.3 | 68.3 | 96 |
| C[C@]1(O)C[C@@H](c2nc(-c3ccc4ccc(-c5ccccc5)nc4c3)c3c(N)nccn32)C1 + C[C@@H]1CCN(C(=O)CC#N)C[C@@H]1N(C)c1ncnc2[nH]ccc12 [CP690550] (first compound 0.4 µM, partner dose 1 µM) | 101 | 110 | 111 | 79.9 | 102 | 87.8 |
| CCN(CC)CCNC(=O)c1c(C)[nH]c(/C=C2\C(=O)Nc3ccc(F)cc32)c1C [sunitinib] + Nc1ncn([C@H]2C[C@H](O)[C@@H](CO)O2)c(=O)n1 [decitabine] (first compound 0.4 µM, partner dose 0.1 µM) | 85.6 | 93.1 | 83.8 | 85.2 | 111 | 86.8 |
| Cn1cnc2c(F)c(Nc3ccc(Br)cc3Cl)c(C(=O)NOCCO)cc21 [selumetinib] + CO[C@@H]1[C@H](N(C)C(=O)c2ccccc2)C[C@H]2O[C@]1(C)n1c3ccccc3c3c4c(c5c6ccccc6n2c5c31)C(=O)NC4 [Midostaurin] (first compound 0.015 µM, partner dose 0.08 µM) | 86.1 | 88.6 | 66.7 | 93 | 97.9 | 114 |
| C[C@]1(O)C[C@@H](c2nc(-c3ccc4ccc(-c5ccccc5)nc4c3)c3c(N)nccn32)C1 + Cn1c(Nc2ccc(C(F)(F)F)cc2)nc2cc(Oc3ccnc(-c4ncc(C(F)(F)F)[nH]4)c3)ccc21 [CHIR265] (first compound 0.4 µM, partner dose 0.08 µM) | 66.3 | 90 | 56.2 | 58.2 | 70.4 | 101 |
| CCN(CC)CCNC(=O)c1c(C)[nH]c(/C=C2\C(=O)Nc3ccc(F)cc32)c1C [sunitinib] + NC(=O)Nc1cc(-c2cccc(F)c2)sc1C(=O)N[C@H]1CCCNC1 [AZD7762] (first compound 0.4 µM, partner dose 0.02 µM) | 85.7 | 111 | 82.8 | 36.3 | 94 | 87.7 |
| COc1cc([C@@H]2c3cc4c(cc3[C@@H](O[C@@H]3O[C@@H]5CO[C@@H](C)O[C@H]5[C@H](O)[C@H]3O)[C@H]3COC(=O)[C@H]23)OCO4)cc(OC)c1O [etoposide] + CN(c1ncccc1CNc1nc(Nc2ccc3c(c2)CC(=O)N3)ncc1C(F)(F)F)S(C)(=O)=O [PF562271] (first compound 0.02 µM, partner dose 0.08 µM) | 81.3 | 80.9 | 88.5 | 85.2 | 83.3 | 85.6 |
| C[C@]1(O)C[C@@H](c2nc(-c3ccc4ccc(-c5ccccc5)nc4c3)c3c(N)nccn32)C1 + Nc1ccn([C@@H]2O[C@H](CO)[C@@H](O)C2(F)F)c(=O)n1 [gemcitabine] (first compound 0.4 µM, partner dose 0.0004 µM) | 109 | 90.6 | 68.9 | 83.6 | 74.5 | 102 |
| C[C@]1(O)C[C@@H](c2nc(-c3ccc4ccc(-c5ccccc5)nc4c3)c3c(N)nccn32)C1 + CCc1ccc(CCOc2ccc(CC3SC(=O)NC3=O)cc2)nc1 [pioglitazone] (first compound 0.4 µM, partner dose 2 µM) | 99.8 | 100 | 75.7 | 78.6 | 82.8 | 96.8 |
| CCN(CC)CCNC(=O)c1c(C)[nH]c(/C=C2\C(=O)Nc3ccc(F)cc32)c1C [sunitinib] + CO[C@H]1C[C@@H]2CC[C@@H](C)[C@@](O)(O2)C(=O)C(=O)N2CCCC[C@H]2C(=O)O[C@H]([C@H](C)C[C@@H]2CC[C@@H](OCCO)[C@H](OC)C2)CC(=O)[C@H](C)/C=C(\C)[C@@H](O)[C@@H](OC)C(=O)[C@H](C)C[C@H](C)/C=C/C=C/C=C/1C [everolimus] (first compound 0.4 µM, partner dose 0.02 µM) | 88.6 | 86.4 | 73.8 | 62.4 | 68 | 61.4 |
| COc1cc([C@@H]2c3cc4c(cc3[C@@H](O[C@@H]3O[C@@H]5CO[C@@H](C)O[C@H]5[C@H](O)[C@H]3O)[C@H]3COC(=O)[C@H]23)OCO4)cc(OC)c1O [etoposide] + C=CCNC1=C2C[C@@H](C)C[C@H](OC)[C@H](O)[C@@H](C)/C=C(\C)[C@H](OC(N)=O)[C@@H](OC)/C=C\C=C(/C)C(=O)NC(=CC1=O)C2=O [Tanespimycin] (first compound 0.02 µM, partner dose 0.002 µM) | 82.9 | 95.8 | 92.5 | 87.4 | 86.4 | 113 |
